Source: paper PMC4538830
These are yes or no findings as the source states them, for the method shown. For some of these results: In cells and extracts the contact can be indirect. Some entries that bind do so weakly or less than the wild type. Sequences can lack the tags named with a protein.

Chains of the proteins cited; added tags and fusions are not shown. Residues count along the entry.
UniProt Q6A068: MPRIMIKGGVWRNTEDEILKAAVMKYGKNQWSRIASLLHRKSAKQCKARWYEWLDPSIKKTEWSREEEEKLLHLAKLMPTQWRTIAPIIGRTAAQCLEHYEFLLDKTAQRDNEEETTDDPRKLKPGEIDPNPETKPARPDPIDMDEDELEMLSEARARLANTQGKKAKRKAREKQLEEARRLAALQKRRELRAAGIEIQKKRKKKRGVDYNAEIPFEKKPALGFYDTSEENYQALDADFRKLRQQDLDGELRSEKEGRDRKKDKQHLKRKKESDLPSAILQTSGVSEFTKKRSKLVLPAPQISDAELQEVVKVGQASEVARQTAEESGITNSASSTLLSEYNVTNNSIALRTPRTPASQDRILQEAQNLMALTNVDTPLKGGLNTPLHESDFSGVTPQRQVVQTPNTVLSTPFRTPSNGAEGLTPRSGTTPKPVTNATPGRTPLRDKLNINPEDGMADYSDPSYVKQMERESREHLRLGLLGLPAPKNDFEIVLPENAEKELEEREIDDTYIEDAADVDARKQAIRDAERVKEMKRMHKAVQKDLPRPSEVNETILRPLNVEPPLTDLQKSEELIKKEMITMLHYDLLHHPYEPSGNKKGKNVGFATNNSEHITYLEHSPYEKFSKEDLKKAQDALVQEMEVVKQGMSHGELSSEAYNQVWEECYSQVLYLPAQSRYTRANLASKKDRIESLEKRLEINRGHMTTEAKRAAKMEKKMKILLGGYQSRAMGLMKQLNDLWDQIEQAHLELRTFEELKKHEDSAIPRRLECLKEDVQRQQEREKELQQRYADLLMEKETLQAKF
UniProt Q99459, residues 1-195: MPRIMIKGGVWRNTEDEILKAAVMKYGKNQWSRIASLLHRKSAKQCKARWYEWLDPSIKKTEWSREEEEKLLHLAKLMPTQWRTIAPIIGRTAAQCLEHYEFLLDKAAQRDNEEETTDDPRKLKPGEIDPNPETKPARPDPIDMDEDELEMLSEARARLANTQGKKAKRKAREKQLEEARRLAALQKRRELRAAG
UniProt Q99KP6: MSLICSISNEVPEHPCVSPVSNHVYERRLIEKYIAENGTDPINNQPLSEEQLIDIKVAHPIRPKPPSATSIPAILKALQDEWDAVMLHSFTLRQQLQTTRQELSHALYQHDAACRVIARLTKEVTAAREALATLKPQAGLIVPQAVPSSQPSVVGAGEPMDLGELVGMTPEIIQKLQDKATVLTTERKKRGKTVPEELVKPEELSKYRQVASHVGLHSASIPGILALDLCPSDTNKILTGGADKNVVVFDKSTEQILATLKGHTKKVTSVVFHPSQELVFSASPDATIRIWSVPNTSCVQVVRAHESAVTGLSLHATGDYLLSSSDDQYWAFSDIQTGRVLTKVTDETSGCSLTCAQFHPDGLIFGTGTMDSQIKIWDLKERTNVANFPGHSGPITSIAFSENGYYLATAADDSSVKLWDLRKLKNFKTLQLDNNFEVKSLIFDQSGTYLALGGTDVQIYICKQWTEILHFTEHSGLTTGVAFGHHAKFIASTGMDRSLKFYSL

Experiments:
[1] = target: T1, human HA-CWC15 (human) (UniProt Q9P013); experiment: co-IP; anti-HA resin, 1 h at 4°C, triton lysis buffer with benzonase; lysates of LPS and IL-4 stimulated mouse B cells transduced with human HA-CWC15; control (Ctnnbl1+/flx) and CTNNBL1-deficient (Ctnnbl1−/flx) cells; western blot
T1 sequence: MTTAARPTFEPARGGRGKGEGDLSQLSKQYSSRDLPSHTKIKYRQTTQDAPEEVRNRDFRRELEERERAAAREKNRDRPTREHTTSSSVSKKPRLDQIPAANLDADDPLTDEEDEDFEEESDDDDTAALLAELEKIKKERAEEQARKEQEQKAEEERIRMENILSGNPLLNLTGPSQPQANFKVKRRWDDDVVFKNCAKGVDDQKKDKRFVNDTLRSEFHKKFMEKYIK

[2] = target: T2, GST-CWC15[80–229] (human) (UniProt Q9P013); experiment: condition: only 0.6 mM KAc (so in the source) or higher, with His-CTNNBL1[77–563] present; pull-down; GST-CWC15[80–229] as bait on glutathione Sepharose with both MBP-CDC5L[1–195] and His-CTNNBL1[77–563] at increasing potassium acetate (0 to 1 M); both purified
T2 sequence: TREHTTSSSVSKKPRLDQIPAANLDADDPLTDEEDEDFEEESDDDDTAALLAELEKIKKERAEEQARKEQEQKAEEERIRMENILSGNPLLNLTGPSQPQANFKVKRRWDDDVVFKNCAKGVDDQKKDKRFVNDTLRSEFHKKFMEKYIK

[3] = target: T2, GST-CWC15[80–229] (human); experiment: pull-down; GST-CWC15[80–229] as bait on glutathione Sepharose with MBP-CDC5L[1–195] at increasing potassium acetate (0 to 1 M); both purified

binding [1]	binding [2]	binding [3]	Substance
binds			mouse CDC5L (from UniProt Q6A068 1-802)
	no binding	binds weakly	MBP-CDC5L[1–195] (from UniProt Q99459 1-195) (domain or fragment)
binds			mouse PRPF19 (from UniProt Q99KP6 1-504)
